# Read counts are not given, so values of variants with three or more changes are uncertain.
# B1: OR4K15 (parent)
# chain: GUUAACGGUCAUAGGCCAUGGAAACUAGGAGCACCAUUUCGCUGCCAGUGAAGAAAUGAACAAAGAAAAUCUGGGCCAGGCAGGCAUCAAAAGAAAUAGUCUUGCGCUCAACCAGAAAGUCUGUAAUCAUUUUAAGGGUA
# Variants of: B1
# Experiment: self-cleavage, relative activity (ratio to wild type); higher = more cleavage; in vitro, sequencing; the parent is a self-cleaving ribozyme
row,Variant,self-cleavage
1,A23G A30G A63G,1.03
2,A23G U39A U87C U130C,0.79
3,A23G U49C A55G A78U,0.24
4,A24C U49C A60C U72C A90G,0.21
5,A22U U43A A51U A90G,0.96
6,A23G A56G A62G A135G,0.63
7,A23G U49A U72C A91G,0.36
8,A23U C105U A118C U130C,0.04
9,A23G C32U A62G A86U,0.89
10,A23U U87C A92G A126G,1.44
11,A23U A47G A63G A117G,0.83
12,A23G U39C U108C A111G,0.04
13,A23C A52G A55G A95G A135G,1.25
14,A23G A47U U108A,0.03
15,A23G A78G A86U A134G,0.27
16,A23G A82U A96G U100C U124A,0.08
17,A23U C32U G41A,2.22
18,A23G A56G A96G A129U,0.68
19,A22U U43C U57C C77A,0.53
20,A23U A78C A91G U127A A135G,0.27
21,A23G A47G U49A,0.51
22,A23G A56G U122C,0.76
23,A23U A66G A68G A91G,0.82
24,A23G U38C A54G A126U,0.63

row,Variant,self-cleavage
1,A23G A67G A96G A117G,1.88
2,A23G A92G A111G A126G,0
3,A24C U26C A59G A125G,0.39
4,A23G A51G A116G,0.68
5,A24C A33G U38A A95G,1.2
6,A23G A30G U37A U49C,1.05
7,A23G U57A A78G,0.18
8,A23G A62G A63U C88A,0.65
9,A23G A68G U133C A140G,0.9
10,A23U A51U A62G A118G,0.77
11,A23G A125G U133C,0.56
12,A22U A66G U70C A91G U97C C121U U132C,0.28
13,A22U A60G U87C,0.76
14,A23G A63G A67G,1.22
15,A24C A59G A92G A116G,0.49
16,A23G U38C A62G U100A,0.22
17,A23G A60G U102C U127G,1.41
18,A22U A89G A140G,1.41
19,A23G A52G A54G U97C U108C,0.05
20,A23G U39C A62G,1.24
21,A23U A36C A52G A55G,1.47
22,A23G A55U A56G A129G,0.7
23,A23U U102C A134G,1.51
24,A24C A86G A118G,1.25

row,Variant,self-cleavage
1,A23G A27G G31A A96C,1.14
2,A22U A68G G75C A126G,0.12
3,A23G A54U A94U,0.7
4,A24C A33G A55G A67G,0.88
5,A23G A60G A116G,1.14
6,A24C A27G U127C,0.75
7,A23G U120A U132C,1.65
8,A23U A95G A118G,1.53
9,A23G A55G A95G,1.13
10,A23G A30G U124A,0.44
11,A23G A47G A64G U87A,1.42
12,A24C A60G U103A U131C,1.35
13,A22U U72C A82U A114G U120A U132C,0.06
14,A23G A66G A86G G123C A140G,0.19
15,A23G U103C G106A U108A,0.01
16,A24C A36U A86G,0.91
17,A23G A47G A82G G104A U122A A134G,0.01
18,A22U A82G G119A,0.62
19,A23G U49C A62G A90G,1.78
20,A24C A55G C81G,0.24
21,A24G A27G U43A A52G A66G U72A,0.48
22,A23G G48A A63G G74A A114U,0.05
23,A23G A24G U57C,0.81
24,A23G A24G G29U A52U A54G A86G A135G,1.17

row,Variant,self-cleavage
1,A23G A90G A116G U132C,0.91
2,A24C U43A A67G,1.55
3,A23G A56G A82G U108A U122C,0
4,A22U A51G A59G A114G,0.13
5,A23G A82C U131C,0.2
6,A23G A33C U103C,0.89
7,A24C A110G U130C,0.05
8,A23G U49A A59U A64G A78U U131C U133C,0.19
9,A23G A94G A116G,0.63
10,A23G A55U U72C A78U U103C U108C,0.02
11,A22U A90G U122C,0.82
12,A23G C85A A89C A90G U102C A116C,0.3
13,A24C U37C G83U A117G C128U,0.39
14,A23G A52G A91G G93U,0.51
15,A23G A52G A92G U124A,0.6
16,A23C A47G A60U,1.56
17,A23G A24G A116G U124A,0.51
18,A23G A89U U130C,0.91
19,A23U U37C A89G C112U,0.02
20,A23G C32U A110G U130C,0.11
21,A23G A78G A129U U133G,0.18
22,A24C U43A C76U A92G U100C,0.05
23,A22U U38C U39A A68G G75U,0.13
24,A22U C46U A67U C88A,2.13

row,Variant,self-cleavage
1,A23U A27G A56G U131C,1.03
2,A23G A27U A30G A55G,1.47
3,A23G A91G U132C,0.81
4,A23G A51G A60G A78U A114U A125U,0.02
5,A23G U49A U72C U103C,0.08
6,A23G A60G A68G U72C A78C A82G A92G U120C U132A,0.06
7,A23G A51U A67G U102C,2.07
8,A24G A27G U39C A63G A92G U127C,0.4
9,A23G A69G U120A,1.3
10,A23G U26C A51G U131C,1.25
11,A23G A33U U87C A118G,1.83
12,A23G U26C A27U A47C A89U A114G A125G A129G,0.02
13,A23G U49C A51G U70A U100C,1.51
14,A23U G31A A67G,1.5
15,A23G G58A A66U A94U,0.75
16,A23G U102C U130C,2.3
17,A23G A62G A118G A129G,0.65
18,A23G A56G A86U U87C,0.37
19,A22U U102C A111G U122C,0.01
20,A23U A24C U49C U108C,0
21,A24G A27G A55G,0.71
22,A23U A27G A60G A95G A114G,0.95
23,A23G U37C U38C A118G U120C,0.12
24,A23G A47C U72A A82G U108C,0.03

row,Variant,self-cleavage
1,A23G A51G A54G U122C A129U U133C,0.86
2,A22U A51U U57A A67G U87C A91G,1.2
3,A24C U38C A47U U130C,1.13
4,A24G A27G U102A,1
5,A23G A66G A67G,1.19
6,A23U A86G U108C,0.02
7,A23G U43C U72C A94G A111G,0.05
8,A23G A86U U130C,0.77
9,A23G U57C U102A,0
10,A23G A36G A66G A92G A111G U132C,0.01
11,A23G A56G A90G A116G,0.25
12,A23G A68U U70C,0.47
13,A24C A67U A118G,0.21
14,A23G A69G A98C U131C,1.26
15,A23G A59G A90G U127C U139C,0.36
16,A24C A86G U103C A111G U120A U127C,0
17,A23U A33G U57C A60G A68G A90C,0.17
18,A23G U43A A47C A110U,0.6
19,A23G G58U A117G,1.69
20,A24C A54G C71U U72C A110U,0.27
21,A23G U37C U49C,0.95
22,A23G U100A U102C A114U,0.12
23,A23G A54G A116G,0.21
24,A23G A60G A67G,0.86

row,Variant,self-cleavage
1,A23G A55G A89C,0.85
2,A23G C42U A67G,0.82
3,A23G A89G A110G U139A,0.09
4,A23U A30G A56G A94G,0.16
5,A24C A62G U108C C112U,0.01
6,A24C A56G U87C,0.84
7,A23G A110G A117G C128A,0.14
8,A23G U39C A96G,1.48
9,A24C A94G U100C U132C,1.69
10,A23G A56G U72A A116U U120C U131C G137U,0.01
11,A22U A60G A67C U132C,2.29
12,A24C A95G U103C,1.37
13,A23G U37C U49C A62G A116U,0.04
14,A24C A30U A47U C128U A129C,0.5
15,A24C A60G C105U A118G U127C U132C,0
16,A23C A67G U108C,0.11
17,A23G A54G A68G A82G,0.2
18,A24C A63G A94G,2.15
19,A23U U57C U70C,0.96
20,A22U A51G U72A A96G U100C A114G A126G,0.12
21,A23G A66U U87C,1.02
22,A23G A60G U124C,1.15
23,A23C A111G A125G,0.01
